According to PMC4336329 (PLoS ONE, 2015):
In all, about 310,000 compounds went through this assay and about 14,000 (4.5%) showed an effect of 50% or more. Effects have a minus sign here. The list shows a part of the results.

Molecular target: human ether-à-go-go-related gene (hERG) potassium channel (human, UniProt Q12809)
Test: primary screen, population patch clamp on CHO cells stably expressing hERG
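Further: peak tail current of the secondary pulse compared with the same well before compound.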

Sequence of human ether-à-go-go-related gene (hERG) potassium channel (Q12809 whole entry, looked up): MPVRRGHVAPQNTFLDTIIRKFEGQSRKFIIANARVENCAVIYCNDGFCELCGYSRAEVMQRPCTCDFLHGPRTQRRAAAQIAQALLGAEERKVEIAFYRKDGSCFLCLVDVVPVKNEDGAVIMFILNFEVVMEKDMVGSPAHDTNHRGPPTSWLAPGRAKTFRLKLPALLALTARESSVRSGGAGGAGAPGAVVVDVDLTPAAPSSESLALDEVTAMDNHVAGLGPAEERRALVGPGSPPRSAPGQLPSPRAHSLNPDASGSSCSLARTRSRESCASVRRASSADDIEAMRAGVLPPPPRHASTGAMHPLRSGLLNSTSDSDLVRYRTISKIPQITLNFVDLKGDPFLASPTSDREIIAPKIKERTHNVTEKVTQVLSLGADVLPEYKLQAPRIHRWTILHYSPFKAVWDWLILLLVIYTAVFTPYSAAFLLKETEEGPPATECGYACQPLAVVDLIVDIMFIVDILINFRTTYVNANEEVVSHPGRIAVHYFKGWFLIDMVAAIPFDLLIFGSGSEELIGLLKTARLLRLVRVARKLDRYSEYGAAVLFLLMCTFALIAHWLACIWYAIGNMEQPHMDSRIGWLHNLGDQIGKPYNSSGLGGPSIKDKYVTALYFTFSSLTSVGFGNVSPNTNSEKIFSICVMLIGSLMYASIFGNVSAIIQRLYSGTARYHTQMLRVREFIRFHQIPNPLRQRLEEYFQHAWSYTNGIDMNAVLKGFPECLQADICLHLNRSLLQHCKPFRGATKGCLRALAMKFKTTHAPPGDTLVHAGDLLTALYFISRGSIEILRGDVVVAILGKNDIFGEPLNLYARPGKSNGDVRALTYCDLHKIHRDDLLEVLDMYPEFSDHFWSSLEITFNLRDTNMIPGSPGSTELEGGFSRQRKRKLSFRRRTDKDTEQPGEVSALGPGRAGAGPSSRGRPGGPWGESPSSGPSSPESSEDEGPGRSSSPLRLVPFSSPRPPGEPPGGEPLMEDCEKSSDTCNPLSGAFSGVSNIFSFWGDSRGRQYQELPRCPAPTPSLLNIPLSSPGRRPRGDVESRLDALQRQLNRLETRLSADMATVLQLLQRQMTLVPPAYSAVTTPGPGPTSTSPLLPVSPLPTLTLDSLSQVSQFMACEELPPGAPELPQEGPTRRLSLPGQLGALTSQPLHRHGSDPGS

In order of rising “hERG current change (%, negative = inhibition) at 10uM” value:
1. CCOC(=O)C1(Cc2cccc(OC)c2)CCN(C2CCOCC2)CC1  -68.7%
2. O=C(c1ccco1)N1CCN(c2cc(N3CCOCC3)c(F)cc2[N+](=O)[O-])CC1  -49.6%
3. O=C(Nc1ccc(Oc2cccnc2)cc1)C1CCN(Cc2cc(Cl)ccc2O)CC1  -45.9%
4. CCN(CC)CCCNC(=S)N(Cc1cccs1)Cc1cc2cc3c(cc2[nH]c1=O)OCCO3  -19.4%
5. O=C(c1cccnc1)N1CCN(c2ccccc2Cl)CC1  -18.5%
6. CCCCNC(=O)CCn1c(=O)c2ccccc2n(Cc2ccc(F)cc2)c1=O  -18.5%
7. CCN(c1cccc(C(F)(F)F)c1)S(=O)(=O)c1ccc2c(c1)CCN2C(=O)C1CC1  -17%
8. O=C(Cc1ccsc1)N1CCN(S(=O)(=O)c2ccccc2F)CC1  -16.9%
9. CC(C)c1ccc(OCC(=O)N(c2ccccn2)C2CCCCC2)cc1  -14.6%
10. CC(C)(CO)NCc1ccccc1OCC(=O)Nc1ccccc1  -14%
11. CCN(CC(=O)NC(=O)NC1CCCCC1)Cc1ccccc1  -10.7%
12. CCOC(=O)C(C)Sc1nc2ccccc2c(=O)n1CC1CCCCC1 (stereo not shown)  -10.1%
13. O=C(NC1CCCCCC1)c1c(F)c(F)c(F)c(F)c1F  -9.7%
14. CCOC(=O)N1CCN(c2ccc(C(=O)CC)cc2F)CC1  -9.37%
15. CCc1ccc(CNC(=O)C2CCC(=O)N2C2CCCCC2)cc1 (stereo not shown)  -8.53%
16. Cc1ccc(N2C(=O)C(Cc3ccc(O)cc3)NC2=S)cc1C (stereo not shown)  -7.04%
17. COc1ccc2c(c1O)C13CCN(C)C(C2)C1CCC(=O)C3 (stereo not shown)  -5.17%
18. Nc1ccc(Cc2nc3cc4ccccc4cc3[nH]2)cc1  -4.41%
19. Cc1ccc(NC(=S)N/N=C/c2ccc([N+](=O)[O-])s2)cc1  -3.04%
20. CC1(c2ccc(Cl)cc2Cl)NC(=O)N(CC(=O)NC2CCCCC2)C1=O (stereo not shown)  -2.85%
21. Cc1cc2cc(CN(Cc3ccco3)S(=O)(=O)c3c(C)ccc4nsnc34)c(=O)[nH]c2cc1C  -2.69%
22. Cc1ccc(NCCC(=O)c2cccs2)cc1  -2.35%
23. COc1ccc(-n2nc3c(c2NC(=O)C2CC(=O)N(c4ccccc4)C2)CS(=O)(=O)C3)cc1 (stereo not shown)  -1.59%
24. N/C(=N\OC(=O)c1ccccc1)c1ccn[nH]1  -1.07%
25. O=C(N/N=C\c1cccnc1)c1cc(-c2ccccc2)nc2c(Cl)cccc12  -0.984%
26. O=C(NNC(=O)C1CCN(c2ncccn2)CC1)c1ccc(Cl)cc1  0.113%
27. C/C(CC(=O)Nc1ccc(Cl)c(Cl)c1)=N\NC(=O)Cc1ccccc1  0.318%
28. CCC(CC)c1nn2c(N)c(/C=C3\C=Nc4ccccc43)c(=O)nc2s1  0.567%
29. COc1ccccc1Oc1c(C)oc2c(CN3CCN(C)CC3)c(O)ccc2c1=O  1.2%
30. CCCCOc1ncnc2c1[nH]c1ccc(C)cc12  3.04%
31. Cc1cc(O)c(C=Nc2cccc(Cl)c2)c(=O)o1  3.23%
32. Cc1ccsc1C1Nc2ccccc2C(=O)N1O (stereo not shown)  3.43%
33. O=C1CC(c2ccccc2Cl)c2c(sc3c(=O)[nH]c(CCl)nc23)N1 (stereo not shown)  3.47%
34. NC(=NC(=O)c1ccc(OCC(F)(F)F)nc1)c1ccccc1  4%
35. NCCCC[C@@H]1NC(=O)[C@H](CCC(=O)O)NC(=O)c2cc([N+](=O)[O-])cc(I)c2OCC[C@@H](C(N)=O)NC1=O  4.92%
36. O=S(=O)(c1cc(-c2nnc(-c3ccc(Br)cc3)o2)ccc1Br)N1CCCCCC1  6.06%
37. COc1cccc2cc(C(=O)NCc3ccccn3)c(=O)oc12  7.92%
38. O=C(NCC1CCCO1)Nc1cc(Cl)cc(Cl)c1 (stereo not shown)  8.42%
39. NS(=O)(=O)c1ccc(F)c(C(=O)O)c1  8.68%
40. Cc1ccc(C(=O)N(C)CC(=O)Nc2ccc(Cl)c(C(F)(F)F)c2)cc1S(=O)(=O)N1CCCCC1  9.11%
41. CN(C)c1ccc(/C(=N\O)C(F)(F)F)cc1  9.81%
42. Cc1sc(N)nc1C12CC3CC(CC(C3)C1)C2  10.5%
43. C/C(=N\Nc1ncc(Cl)cc1Cl)c1ccc(N2CCOCC2)cc1  11.1%
44. COC(=O)c1c(N2C(=O)[C@H]3[C@@H](C2=O)[C@]2(C(=O)Nc4ccc(C)cc42)N2CCC[C@@H]32)sc(C)c1C  11.8%
45. COc1ccc(CC(=O)Nc2ccc3nc(SC)sc3c2)cc1OC  14.7%
46. Cl.N/C(=N\O)C1COc2ccccc2O1 (stereo not shown)  16.4%
47. O=C(NC(=S)NCc1cccnc1)c1cccc2ccccc12  17.2%
48. C=C(c1ccccc1)P(=O)(O)O  17.8%
49. Cl.NCCc1nnc(SCc2ccccc2)o1  18.2%
50. Nc1nc(Nc2ccccc2)nc(NC2CCCCC2)c1[N+](=O)[O-]  18.9%
51. COc1cccc(/C=C2\SC(=S)N(CCCC(=O)Nc3cc(C)on3)C2=O)c1  19%
52. Cc1cc(NC(=O)CSc2nnc(C)n2-c2ccccc2C)no1  19.1%
53. COc1ccc(NC(=O)CCN2CCOCC2)c(OC)c1  19.5%
54. O=C(NCc1ccc(Cl)cc1)c1ccc(-n2cccn2)nc1  20.5%
55. Cc1ccc(/C=N/NC(=O)c2cccc3ccccc23)o1  20.8%
56. CCOC(=O)C(C(=O)OCC)C1N=C(N)N=C2Oc3ccccc3N21 (stereo not shown)  24.2%
57. Cc1[nH]c2ccc(C(=O)N3CCN(C)CC3)cc2c1C  30.8%
58. O=C(O)CNC(=S)N(Cc1ccccc1)Cc1ccccc1F  33.7%
